# Screen size: about 150,000 compounds; about 540 (0.36%) showed an effect of 50% or more. Some of the results follow.
# System: Plasmodium falciparum
# Assay: Primary screen in NF54 nanoGlo assay, in single point, at 2uM, 72h; a lower Z score goes with more inhibition
# Assay type: functional, Erythrocyte
# Conditions: timepoint 72 hour
Structure (SMILES),% Inhibition,Z score
O=C(N[C@H]1CCCN(Cc2nc3c(s2)CCCC3)CC1)c1ccncc1,-6%,1.27
COc1cccc2c(=O)c3c([nH]c12)CCN(CC(=O)NCc1ccccc1Cl)C3,33%,-4.27
COc1ccnc(Cn2ncc(N(C)C)cc2=O)c1,-9%,1
Nc1[nH]nc(C(=O)N[C@H]2CCOC3(CCOCC3)C2)c1-c1ccccc1,-8%,1.47
CC[C@@H](C1=CCCN(Cc2ccccc2C#N)C1)N(C)C(C)=O,4%,-0.52
c1ccc2c(c1)OCc1cnc(N3CCC4(CC3)OCCO4)nc1-2,4%,-0.77
N#Cc1ccc(Cn2ccc(=O)c3sccc32)c(F)c1,-9%,1.14
COc1ccc2[nH]c(CN3CCN(Cc4cccc(C)n4)[C@@H](CCO)C3)c(C)c2c1,9%,-1.33
C/C(=C\c1nsc(Nc2ccccc2)n1)NCc1ccc(Cl)cc1,-6%,0.85
CCC(C)C(NC(=O)COc1ccc(Cl)cc1)c1nc(-c2ccc3c(c2)OCO3)no1 (stereo not given),-1%,0.15
Cc1cc(NC(=O)[C@@H]2C[C@@H]3OCC[C@@H]3N2)nn1CCCOc1ccc(F)cc1,-2%,0.29
CC[C@H](C)N(CCC(=O)Nc1nnc(-c2cccc(OC)c2)s1)C(=O)c1cc(C(F)(F)F)cc(C(F)(F)F)c1,-9%,1.02
CC(C)N(Cc1ccccc1)C(=O)C1=CCN(S(=O)(=O)c2ccccc2)CC1,1%,-0.11
COc1ccccc1C(=O)n1nc(NCc2cccc3ccccc23)nc1NCc1cccc2ccccc12,-5%,0.76
O=C(COc1ccccc1)N1CCC[C@H](CN2CCOCC2)CC1,3%,-0.4
O=C(NCc1cc(F)ccc1C(F)(F)F)[C@@H]1CCCN1C1CCNCC1,-8%,1.66
CC(C(=O)N1CCc2ccccc21)N1CCOC(Cn2cccn2)C1 (stereo not given),-11%,1.83
Cc1cnn(-c2cccc(N3CCC[C@H](O)CC3)n2)c1,0%,-0.01
Cc1oc(-c2cccc(F)c2F)nc1CN1CCC[C@H]1c1nc2cc(F)ccc2[nH]1,11%,-1.49
CCCCN1CCN([C@@H](C(=O)N2CCCNCC2)c2ccccc2)C(=O)C1=O,1%,-0.18
CCN1C(=O)[C@]2(CC(=O)Nc3c2cnn3C(C)(C)C)c2cccc(C)c21,25%,-2.83
Cc1nsc(C(=O)NCc2ccccn2)n1,-15%,2.37

Structure (SMILES),% Inhibition,Z score
O=C(Nc1ccc(S(=O)(=O)NCc2cccnc2)cc1)N1CCCC1,-13%,2.65
COCCN(C(=O)CCCN1C(=O)c2ccccc2C1=O)c1ccc(C(F)(F)F)cn1,7%,-0.91
CCc1ccc(C(=O)NCc2nc(C)cs2)s1,-4%,0.58
O=C(NCC1(CCO)CC1)c1ccc(Oc2cccc(Cl)c2Cl)nc1,-8%,0.98
Cc1nncn1CCN(C)Cc1ccccc1Cl,-2%,0.3
O=C([C@H]1CC(=O)N(c2ccc(F)cc2)C1)N1CC(CF)C1,-25%,2.87
COc1nccc(NC(=O)N2CCC(O)(Cc3ccccc3OC)CC2)n1,-28%,3.26
COCCNC(=O)C1Cc2cc(C(F)(F)F)ccc2N2CCN(CC(=O)N3CCOCC3)CC12 (stereo not given),-5%,0.86
CCc1nc(C)c(C(=O)NCc2nccn2C(C)C)o1,-5%,0.83
Cc1ccc(C(=O)N2CC(N3C(=O)CNC3=O)C2)c(C)c1,-6%,1.12
CCc1cc(N2CCC(NC[C@@]3(C)CCCO3)CC2)nc(N(C)C)n1,-11%,1.74
OC[C@@]1(CCc2ccccc2)CCCN(c2ccc3ccccc3n2)C1,-5%,0.79
COc1cc(OC)nc(N(C)Cc2cn(C)nc2C)n1,5%,-0.59
CCN(C(=O)Nc1ccc(C2CCCCC2)cc1)[C@H]1CCS(=O)(=O)C1,-19%,1.93
CCCN(CC(=O)N(C)C)Cn1nc(C(C)(C)C)oc1=S,-6%,0.77
O=C1CC[C@@H](C(=O)Nc2cccc(S(=O)(=O)N3CCOCC3)c2)N1,-6%,0.88
Cc1noc(C)c1C[C@H](C)Nc1ccnc(C(C)C)n1,-15%,1.89
CC1CN(CC(=O)NC2CCCC2)C(C)CO1 (stereo not given),-2%,0.19
Cc1oncc1-c1csc(-c2ccsc2)n1,-10%,1.03
C[C@H](NCc1cncnc1)c1cc2ccccc2o1,-14%,2.03
CCCc1nnc2n1CC1CCC(C2)N1C(=O)CCc1ccccc1 (stereo not given),-11%,1.43
COC[C@@H](O)CCNC(=O)NC1CCC(C)(C)CC1,-9%,0.96

Structure (SMILES),% Inhibition,Z score
CNC(=O)C1(N2CCC[C@H]2C(=O)NCCN2CCOCC2)CCCCC1,13%,-1.54
CC1CCCCC12NCCN=C2NCc1ccc(F)cc1 (stereo not given),0%,-0.05
COc1ccc(-c2nc3ccc(C(=O)NCc4ccc5c(c4)OCO5)cc3nc2-c2ccc(OC)cc2)cc1,-5%,0.69
CCOC(=O)c1cc(NC(=O)NCCS(C)(=O)=O)c(F)cc1C,37%,-5.37
CC(=O)c1ccc(S(=O)(=O)Nc2cc(C(=O)O)ccc2N(C)Cc2ccccc2)cc1,-14%,1.38
Cc1noc(NC(=O)COc2ccc(Cl)cc2)n1,-7%,0.96
Cc1ccc(C(=O)N[C@H](CO)CN2CCCCC2)n1C,-14%,2.23
OCCN1CCC2(CC1)OCc1ccccc12,3%,-0.55
CCOC(=O)C[C@H](N)c1cc(C(F)(F)F)ccc1Cl,-1%,0.14
Cc1ccc(S(=O)(=O)CC(C)NC2CCC23CCCC3)cc1 (stereo not given),-10%,1.81
O=C(NCc1c(Cl)cccc1-n1ccnc1)C1CCOCC1,-7%,0.94
C[C@H](C(N)=O)N(C)Cc1ccc(C#N)cc1Br,3%,-0.26
Cc1cccc2cc(C(=O)N(CCC(=O)O)CC3CC3)oc12,-12%,1.84
COC[C@H](C)NC(=O)c1cncn1-c1ccc(-c2cc(C(F)(F)F)cc(C(F)(F)F)c2)cc1,-10%,1.73
CC(C)(C)CN1C[C@@H](NC(=O)Cc2cccnc2)CC1=O,-12%,2.08
Cc1noc(Cn2c(Cl)cccc2=O)n1,3%,-0.36
COCc1nc(C(=O)Nc2nc(C)nn2C)cs1,-12%,1.59
Cc1ccc(-c2cc3c(N4CCC5(CC4)OCCO5)nccn3n2)c(C)c1,27%,-3.7
c1cc(-c2ccc(-c3cnc4nncn4c3)cc2)[nH]n1,-1%,0.2
O=C(Nc1ccnn1Cc1c(Cl)cccc1Cl)c1ccccn1,1%,-0.19
CCc1ccccc1NC(=O)C1CCN(S(=O)(=O)c2ccc3c(c2)CCCN3C(=O)C2CCC2)CC1,-19%,3.59
COc1ccc(-c2ccc3c(c2)C(=O)N2CCN(C(=O)[C@@H](O)c4ccccc4)C[C@@H]2C(=O)N3)cc1,-10%,1.61

Structure (SMILES),% Inhibition,Z score
C[C@H](NC(=O)c1ccc(N2CCCCS2(=O)=O)cc1Cl)c1nc2ccccc2n1C,2%,-0.21
CN1C(=O)CN(c2cccc(C#N)n2)CC1=O,-30%,3.51
CC1CC(C(=O)N2CCC(O)(Cc3ccccn3)CC2)CC(C)(C)C1 (stereo not given),-15%,1.92
COc1ccc(Cl)cc1-c1cc(C(=O)N2CCOCC2)ccn1,3%,-0.54
COCc1nc(Cn2cnc3c(c2=O)CCC3)cs1,4%,-0.6
Cc1csc(CNc2nc(C)nn2C)n1,-3%,0.39
CCc1cnc(NCCCN2CCOCC2)nc1,-9%,1.73
Cc1cc(F)ccc1-n1cc(C(=O)NC2(C(N)=O)CCCCC2)nn1,-6%,1.22
Cc1ccc([C@H]2c3ccccc3CCN2C(=O)Nc2ccc(F)cc2F)cc1,-9%,1.41
NC(=O)c1c[nH]c(-c2noc([C@@H]3CCCCO3)n2)c1,-11%,1.19
CN([C@@]1(C#N)CCOC1)S(=O)(=O)c1ccccc1Cl,-14%,1.22
Cn1nccc1S(=O)(=O)N1CCN(C2CC2)c2ccc(F)cc21,6%,-0.75
CCc1nc(CNC(=O)c2c(Cl)cnn2C)cs1,0%,-0.03
CC[C@H](Nc1ccc(OC)cc1)C(=O)O,-7%,1.1
O=C1N(CCCc2ccccc2)CCC[C@@]1(O)CNC1CCCC1,-9%,1.12
Cc1cnc(-n2ncc(C(=O)N3CC[C@H](N(C)C)C3)c2-c2cccs2)nc1-c1ccc(F)cc1,-15%,2.35
COc1ncncc1NC(=O)N1CC(=O)NC(=O)C12CCCCC2,-9%,1.14
Cc1ccc(S(=O)(=O)Nc2ccc(-c3n[nH]c(CNC(=O)OC(C)(C)C)n3)cc2)cc1,-9%,1
CCc1c(C)nc(N)nc1NCCOCc1ccccc1,-5%,0.66

# Reference: ChEMBL document CHEMBL4888484, “Replenishing the malaria drug discovery pipeline: Screening and hit evaluation of the MMV Hit Generation Library 1 (HGL1) against asexual blood stage Plasmodium falciparum ,using a nano luciferase reporter read-out” (2022)
